Reference: the supplement of paper PMC12217912
The list shows a part of the results. The full chains were built here from the parent and the listed change. Inactive controls read about 0.05.

B1: TEV protease; numbered along this chain (parent)
chain: MGESLFKGPRDYNPISSSICHLTNESDGHTTSLYGIGFGPFIITNKHLFRRNNGTLVVQSLHGVFKVKDTTTLQQHLVDGRDMIIIRMPKDFPPFPQKLKFREPQREERICLVTTNFQTKSMSSMVSDTSCTFPSGDGIFWKHWIQTKDGQCGSPLVSTRDGFIVGIHSASNFTNTNNYFTSVPKNFMELLTNQEAQQWVSGWRLNADSVLWGGHKVFMVKPEEPFQPVKEATQL

Variants of: B1
Assay: raw area under fraction-flipped curve 0-4 h after induction (AUC4h, not background-subtracted), DNA-recorder readout of cleavage of the substrate (dimensionless); higher = more cleavage of the substrate by the protease variant
Settings: temperature: 34 °C; time window: 0-4 h after rhamnose induction
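Note: Bxb1 expression induced with 0.2% (w/v) L-rhamnose at OD600 near 0.5, cultures sampled hourly, flipped fraction per protease–substrate barcode pair counted by paired-end Illumina sequencing.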

Q: What does the source list for G202I?
A: area with substrate EFLYFQS: 0.0642; area with substrate EGLYFQS: 0.0518; area with substrate EILYFQS: 0.0728; area with substrate EQLYFQS: 0.0139; area with substrate ERLYFQS: 0.0568; area with substrate ESLYFQS: 0.0594; area with substrate ETLYFQS: 0.052; area with substrate EVLYFQS: 0.0599; area with substrate EWLYFQS: 0.0614

Q: What does the source list for F180H?
A: area with substrate EILYFQS: 0.0772; area with substrate EKLYFQS: 0.114; area with substrate ERLYFQS: 0.123; area with substrate ESLYFQS: 0.107

Q: Which “area with substrate EFLYFQS” value does the source give for A207R here?
A: 0.0817

Q: And the “area with substrate EILYFQS” value?
A: 0.0913

Q: What about the “area with substrate EKLYFQS” value of the same variant?
A: 0.116

Q: And the “area with substrate ERLYFQS” value?
A: 0.106

Q: And the “area with substrate ESLYFQS” value?
A: 0.114

Q: What about the “area with substrate ETLYFQS” value of the same variant?
A: 0.117

Q: And the “area with substrate EVLYFQS” value?
A: 0.0943

Q: What about the “area with substrate EYLYFQS” value of the same variant?
A: 0.0812

Q: With K90M as the variant, how does the “area with substrate ELLYFQS” value read?
A: 0.0998

Q: What about the “area with substrate EQLYFQS” value of the same variant?
A: 0.115

Q: Which results are given for Q74P?
A: area with substrate EPLYFQS: 0.121; area with substrate EQLYFQS: 0.11; area with substrate ERLYFQS: 0.1

Q: For L99H, which “area with substrate EKLYFQS” value is on record?
A: 0.0937

Q: With L99K as the variant, how does the “area with substrate EILYFQS” value read?
A: 0.0537

Q: And the “area with substrate EKLYFQS” value?
A: 0.0761

Q: What about the “area with substrate EMLYFQS” value of the same variant?
A: 0.0886

Q: And the “area with substrate EQLYFQS” value?
A: 0.0934

Q: And the “area with substrate ERLYFQS” value?
A: 0.0786

Q: Which results are given for T174F?
A: area with substrate EILYFQS: 0.116; area with substrate ESLYFQS: 0.0982

Q: Which results are given for G213H?
A: area with substrate EGLYFQS: 0.0696; area with substrate EILYFQS: 0.0412; area with substrate EKLYFQS: 0.0731; area with substrate EMLYFQS: 0.0809; area with substrate ESLYFQS: 0.0565

Q: For V165I, which “area with substrate EILYFQS” value is on record?
A: 0.0834

Q: And the “area with substrate EKLYFQS” value?
A: 0.103

Q: And the “area with substrate EPLYFQS” value?
A: 0.139

Q: What about the “area with substrate ESLYFQS” value of the same variant?
A: 0.102

Q: What about the “area with substrate ETLYFQS” value of the same variant?
A: 0.104

Q: What about the “area with substrate EVLYFQS” value of the same variant?
A: 0.152

Q: What does the source list for E3V?
A: area with substrate EILYFQS: 0.0676; area with substrate ERLYFQS: 0.171

Q: Which results are given for N178Y?
A: area with substrate EILYFQS: 0.161; area with substrate EPLYFQS: 0.176; area with substrate EQLYFQS: 0.207; area with substrate ETLYFQS: 0.172; area with substrate EVLYFQS: 0.157

Q: Which “area with substrate EKLYFQS” value does the source give for N178S here?
A: 0.0921

Q: What about the “area with substrate EPLYFQS” value of the same variant?
A: 0.113

Q: What about the “area with substrate EQLYFQS” value of the same variant?
A: 0.114

Q: What about the “area with substrate ESLYFQS” value of the same variant?
A: 0.123

Q: What about the “area with substrate ETLYFQS” value of the same variant?
A: 0.117

Q: And the “area with substrate EVLYFQS” value?
A: 0.132

Q: With E223D as the variant, how does the “area with substrate EQLYFQS” value read?
A: 0.121

Q: What about the “area with substrate ERLYFQS” value of the same variant?
A: 0.111

Q: And the “area with substrate EVLYFQS” value?
A: 0.124

Q: Which “area with substrate EMLYFQS” value does the source give for G8L here?
A: 0.123

Q: And the “area with substrate EPLYFQS” value?
A: 0.106

Q: What about the “area with substrate ERLYFQS” value of the same variant?
A: 0.114

Q: And the “area with substrate ESLYFQS” value?
A: 0.0979

Q: Which results are given for P93W?
A: area with substrate EGLYFQS: 0.0774; area with substrate EMLYFQS: 0.104

Q: For L61T, which “area with substrate EILYFQS” value is on record?
A: 0.124

Q: What about the “area with substrate EMLYFQS” value of the same variant?
A: 0.12

Q: What about the “area with substrate ESLYFQS” value of the same variant?
A: 0.0772

Q: And the “area with substrate EVLYFQS” value?
A: 0.0988

Q: What about the “area with substrate EYLYFQS” value of the same variant?
A: 0.11

Q: What does the source list for V210E?
A: area with substrate EILYFQS: 0.0601; area with substrate ELLYFQS: 0.068; area with substrate EQLYFQS: 0.0568

Q: Which “area with substrate EILYFQS” value does the source give for G166K here?
A: 0.096

Q: What about the “area with substrate ELLYFQS” value of the same variant?
A: 0.0544

Q: What about the “area with substrate EPLYFQS” value of the same variant?
A: 0.0592

Q: And the “area with substrate EVLYFQS” value?
A: 0.0555

Q: Which results are given for W199Q?
A: area with substrate EGLYFQS: 0.0821; area with substrate EVLYFQS: 0.0648; area with substrate EWLYFQS: 0.0683

Q: Which “area with substrate EGLYFQS” value does the source give for A196V here?
A: 0.0746

Q: What about the “area with substrate EHLYFQS” value of the same variant?
A: 0.0958

Q: And the “area with substrate EILYFQS” value?
A: 0.112

Q: And the “area with substrate EKLYFQS” value?
A: 0.105

Q: And the “area with substrate EPLYFQS” value?
A: 0.169

Q: What about the “area with substrate ESLYFQS” value of the same variant?
A: 0.0927

Q: What about the “area with substrate EWLYFQS” value of the same variant?
A: 0.0747

Q: And the “area with substrate EYLYFQS” value?
A: 0.124

Q: For S182M, which “area with substrate EFLYFQS” value is on record?
A: 0.0823

Q: For R102N, which “area with substrate EPLYFQS” value is on record?
A: 0.0419

Q: What about the “area with substrate EYLYFQS” value of the same variant?
A: 0.0812

Q: For L211D, which “area with substrate EILYFQS” value is on record?
A: 0.13

Q: For L211T, which “area with substrate EFLYFQS” value is on record?
A: 0.112

Q: Which “area with substrate EKLYFQS” value does the source give for Y179D here?
A: 0.0486

Q: And the “area with substrate EQLYFQS” value?
A: 0.0612

Q: What about the “area with substrate ESLYFQS” value of the same variant?
A: 0.0612

Q: And the “area with substrate EVLYFQS” value?
A: 0.155

Q: With S158E as the variant, how does the “area with substrate EHLYFQS” value read?
A: 0.0962

Q: And the “area with substrate ELLYFQS” value?
A: 0.0766

Q: And the “area with substrate ERLYFQS” value?
A: 0.104

Q: What about the “area with substrate EVLYFQS” value of the same variant?
A: 0.0844

Q: Which “area with substrate ELLYFQS” value does the source give for S158L here?
A: 0.0364

Q: And the “area with substrate EMLYFQS” value?
A: 0.046

Q: What about the “area with substrate ERLYFQS” value of the same variant?
A: 0.0549

Q: For S201Q, which “area with substrate EILYFQS” value is on record?
A: 0.106

Q: And the “area with substrate EKLYFQS” value?
A: 0.125

Q: And the “area with substrate ERLYFQS” value?
A: 0.111

Q: And the “area with substrate ETLYFQS” value?
A: 0.109

Q: What about the “area with substrate EWLYFQS” value of the same variant?
A: 0.0799

Q: And the “area with substrate EYLYFQS” value?
A: 0.0968

Q: With C131F as the variant, how does the “area with substrate EQLYFQS” value read?
A: 0.234

Q: What about the “area with substrate EVLYFQS” value of the same variant?
A: 0.147

Q: What does the source list for C131E?
A: area with substrate ELLYFQS: 0.08; area with substrate ESLYFQS: 0.108

Q: Which results are given for C131H?
A: area with substrate EILYFQS: 0.157; area with substrate ELLYFQS: 0.154; area with substrate ERLYFQS: 0.0579

Q: Which “area with substrate ELLYFQS” value does the source give for C131W here?
A: 0.143

Q: And the “area with substrate ERLYFQS” value?
A: 0.0996

Q: With C131I as the variant, how does the “area with substrate EHLYFQS” value read?
A: 0.123

Q: And the “area with substrate EKLYFQS” value?
A: 0.15

Q: And the “area with substrate EQLYFQS” value?
A: 0.118

Q: And the “area with substrate ESLYFQS” value?
A: 0.0997

Q: Which “area with substrate EILYFQS” value does the source give for F163S here?
A: 0.111

Q: Which “area with substrate EHLYFQS” value does the source give for P222L here?
A: 0.0729

Q: What about the “area with substrate ELLYFQS” value of the same variant?
A: 0.0701

Q: And the “area with substrate EPLYFQS” value?
A: 0.134

Q: And the “area with substrate EVLYFQS” value?
A: 0.0708

Q: Which “area with substrate EQLYFQS” value does the source give for G214F here?
A: 0.089

Q: What about the “area with substrate EVLYFQS” value of the same variant?
A: 0.0915

Q: Which “area with substrate EHLYFQS” value does the source give for G214W here?
A: 0.0696

Q: What about the “area with substrate EILYFQS” value of the same variant?
A: 0.0681

Q: And the “area with substrate ELLYFQS” value?
A: 0.0763

Q: What about the “area with substrate EPLYFQS” value of the same variant?
A: 0.102

Q: What about the “area with substrate EQLYFQS” value of the same variant?
A: 0.0664

Q: And the “area with substrate ESLYFQS” value?
A: 0.0284

Q: And the “area with substrate EVLYFQS” value?
A: 0.1

Q: For N206P, which “area with substrate ELLYFQS” value is on record?
A: 0.106

Q: And the “area with substrate ESLYFQS” value?
A: 0.105

Q: With Q198P as the variant, how does the “area with substrate EGLYFQS” value read?
A: 0.0736

Q: What about the “area with substrate EILYFQS” value of the same variant?
A: 0.0705

Q: And the “area with substrate ELLYFQS” value?
A: 0.0776

Q: And the “area with substrate EMLYFQS” value?
A: 0.0686

Q: And the “area with substrate EPLYFQS” value?
A: 0.0962

Q: And the “area with substrate ETLYFQS” value?
A: 0.107

Q: What about the “area with substrate EVLYFQS” value of the same variant?
A: 0.0756

Q: What about the “area with substrate EYLYFQS” value of the same variant?
A: 0.0863
